# Reference: PubChem BioAssay AID1671194 (National Center for Advancing Translational Sciences (NCATS), 2021)
# The campaign covered roughly 140,000 compounds. About 240 (0.17%) were called active. Inconclusive results, whose numbers are uncertain, are shown with a selection of clear calls. Calls come from the whole dose curve; as a rule, active = well fitted inhibition curve with a large enough effect; inconclusive = small, poorly fitted or top-dose-only effect; inactive = no such curve, though single readings can be large or run the other way. Where the call is inconclusive, the potency comes from a doubtful curve fit.
# Experiment: Primary qHTS assay for inhibitors of alpha-synuclein gene (SNCA) expression; note: nearly all actives have a fitted effect of over 45% in size
# Details: HEK-293 SNCA-luciferase knock-in, luminescence, 24 h; series mostly up to 57.2 µM
# Potency is the fitted concentration of half-maximal effect; tags give direction and shape of the fitted curve.
row,SMILES,Potency
1,COc1ccc(CNC(=O)c2cc3n(n2)CC(c2ccc(Cl)cc2)OC3)cc1OC (centres undefined),"inconclusive: 39.8 µM [inhibitor, single point]"
2,CC1(CCCCc2ccccc2)COc2ccc(C(=O)NC3CCOCC3)cc2N1 (centres undefined),"inconclusive: 15.8 µM [inhibitor, partial curve, poor fit]"
3,Cc1nc(CN2CC3(CCN(C)C3)c3cc(C(=O)NCCc4ccccc4)ccc32)cs1 (centres undefined),inactive
4,CCN(c1ccccc1)S(=O)(=O)c1ccc(NC(=O)c2nc(S(C)(=O)=O)ncc2Cl)cc1,"inconclusive: 7.94 µM [inhibitor, partial curve, poor fit]"
5,O=C(c1ccccc1)N1Cc2ccccc2CC2(CCCN2Cc2ccncc2)C1 (centres undefined),"inconclusive: 10 µM [inhibitor, partial curve]"
6,COCCCNC(=O)c1ccnc(-c2nnc3ccc(N(C)C)nn23)c1,inactive
7,CC(=O)Nc1ccc(C2(C(=O)O)CCC2)cc1,"inconclusive: 6.31 µM [inhibitor, single point]"
8,CNC(=O)c1cccc(-c2cnc3[nH]cc(CC(=O)NC4CCC4)c3c2)c1,inactive
9,Cc1ccccc1N1CCCN(Cc2cc3n(n2)CCNC3)CC1,"inconclusive: 15.8 µM [inhibitor, partial curve, poor fit]"
10,CNC(=O)[C@@H]1CN(C(=O)c2cc3cc(OC)ccc3[nH]2)C[C@H]1COC,inactive
11,O=C(NCC1CCN(c2cc(-c3ccccc3)[nH]n2)CC1)c1n[nH]c2c1CCCC2,inactive
12,COc1ccccc1CN1CCC2(CC1)CCN(C(=O)c1cc(C(F)(F)F)cc(C(F)(F)F)c1)CC2,"inconclusive: 10 µM [inhibitor, partial curve, poor fit]"
13,Cc1nn(-c2ccc(C(C)(C)C)cc2)c(C)c1[C@@H]1C=C[C@@H](NC(=O)NCc2ccccc2)C1,inactive
14,O=C(NC1CCCCCCC1)C1CCN(C(=O)c2ncn3c2COC(c2ccc(F)cc2)C3)CC1 (centres undefined),"inconclusive: 3.16 µM [inhibitor, single point]"
15,O=C(Cc1ccc2c(c1)OCO2)N1CCc2c(n(CCOc3ccccc3)n(-c3ccccc3)c2=O)C1,inactive
16,CCc1nc2nc(C)cc(Nc3cc(C)ccc3C)n2n1,inactive
17,CNC(=O)C1CCCN(c2nccc(Nc3ccccc3F)n2)C1 (centres undefined),"inconclusive: 11.2 µM [inhibitor, single point]"
18,O=C(NCCc1cccnc1)c1cc2n(n1)CC(c1ccc(Br)cc1)OC2 (centres undefined),inactive
19,Cc1ccc(C(=O)N2CCC(C(NC(=O)c3ccccc3C)C(=O)NCC(C)C)CC2)cc1 (centres undefined),"inconclusive: 39.8 µM [inhibitor, single point]"
